Laboratory results from the supplement of paper PMC8047034.
Where a name gives a salt, the structure may show the parent alone. Some of the results follow. Repeats are few or missing, and single values can be far off.

System: OVCAR4
Assay: log2 surviving fraction (library drug vs vehicle, or drug + carboplatin vs carboplatin alone; relative to plate median); ovarian cancer lines: OVCAR4 is platinum-sensitive and Ov4Carbo platinum-resistant; higher = more cell survival
Details: library drug concentration 10 µM; 7 days; carboplatin co-treatment 5 µM

Which log2 surviving fraction does the source give for `Cc1cc(-n2c(=O)[nH]c(=O)n(C)c2=O)ccc1Oc1ccc(SC(F)(F)F)cc1` [toltrazuril] here?
The log2 surviving fraction was 0.0736.

How did the log2 surviving fraction turn out when `Nc1ccc(S(=O)(=O)Nc2ccccn2)cc1` [Sulfapyridine (Dagenan)] was run?
Its log2 surviving fraction is -0.149.

How did the log2 surviving fraction turn out when `CNCCCC12CCC(c3ccccc31)c1ccccc12` [Maprotiline hydrochloride] was run?
Its log2 surviving fraction is -1.4.

`CCCc1cc(C(N)=S)ccn1` [Protionamide (Prothionamide)] was tested. Which log2 surviving fraction did it give?
The log2 surviving fraction was 1.1.

Which log2 surviving fraction does the source give for `CC(C)c1nc(N(C)S(C)(=O)=O)nc(-c2ccc(F)cc2)c1/C=C/[C@@H](O)C[C@@H](O)CC(=O)O` [Rosuvastatin calcium (Crestor)] here?
Its log2 surviving fraction is -0.384.

For `CC1CCc2cc(F)cc3c(=O)c(C(=O)O)cn1c23` (stereo unspecified) [Flumequine], which log2 surviving fraction is on record?
Its log2 surviving fraction is 0.142.

With `CCC(=O)O[C@]1(C(=O)CCl)[C@@H](C)C[C@H]2[C@@H]3CCC4=CC(=O)C=C[C@]4(C)[C@@]3(F)[C@@H](O)C[C@@]21C` [Clobetasol propionate] as the compound, how does the log2 surviving fraction read?
The log2 surviving fraction was -1.1.

For `NC(=O)CC[C@H](N)C(=O)O` [L-Glutamine], which log2 surviving fraction is on record?
The log2 surviving fraction was 0.866.

`C[C@H](CCC(=O)O)[C@H]1CC[C@H]2[C@@H]3[C@H](O)C[C@@H]4C[C@H](O)CC[C@]4(C)[C@H]3CC[C@]12C` [Chenodeoxycholic acid] was tested. Which log2 surviving fraction did it give?
Its log2 surviving fraction is 0.0766.

How did the log2 surviving fraction turn out when `O=C(O)[C@H](CC(=O)N1C[C@H]2CCCC[C@H]2C1)Cc1ccccc1` [Mitiglinide calcium] was run?
The log2 surviving fraction was 1.03.

Which log2 surviving fraction does the source give for `C[C@]12CC[C@H](O)C[C@H]1CC[C@@H]1[C@@H]2C[C@@H](O)[C@]2(C)[C@@H](C3=CC(=O)OC3)CC[C@]12O` [Digoxigenin] here?
The log2 surviving fraction was -7.91.
